{"source": "PubChem BioAssay AID624296", "about": "(National Center for Advancing Translational Sciences (NCATS), 2012)", "note": "Out of some 350,000 compounds screened, about 9,900 (2.8%) were called active. The shares of active, inactive and inconclusive entries below differ from those in the screen. The call rests on the fitted dose curve; in most records, active means well fitted activation curve with a large enough effect; inconclusive means small, poorly fitted or top-dose-only effect; inactive means no such curve, though single readings can be large or run the other way. Potencies of inconclusive entries are left out as doubtful fits.", "data": [{"assay": "A quantitative high throughput screen for small molecules that induce DNA re-replication in MCF 10a normal breast cells; further: nearly all actives have a fitted effect of over 50% in size; further: potency means the concentration at half of the fitted maximal effect; tags describe the fitted curve by direction and shape; on activity, positive = re-replication: % of control where 0% means no effect.", "conditions": "MCF 10A DNA re-replication, Hoechst nuclear intensity, 48 h; activity, positive = re-replication: at 46.1 µM (top of the series)", "values": [{"compound": "COc1ccc(NS(=O)(=O)c2ccc(NC(=O)C(CCSC)NC(N)=O)cc2)cc1", "note": "(stereo not drawn)", "activity, positive = re-replication": "inactive: 3.11%"}, {"compound": "N#CC(C(=O)c1ccccc1Cl)=C1SCCCS1", "Potency": "inconclusive [activator, single point]"}, {"compound": "O=C(N/N=C/c1c[nH]c2ccccc12)c1ccn(Cc2ccc(Cl)cc2Cl)n1", "Potency": "inconclusive [activator, partial curve, poor fit]"}, {"compound": "COc1ccc(-c2nc(C)ncc2-c2ccccc2)c(O)c1", "Potency": "inconclusive [activator, single point]"}, {"compound": "Cc1ccc2cccc(Oc3ncnc4scc(-c5ccccc5)c34)c2n1", "Potency": "inconclusive [activator, single point]"}, {"compound": "O=C1CC[C@@H]2C[C@@]3(C[C@@H]4CCN1[C@H]24)Nc1cc([N+](=O)[O-])ccc1NC3=NCc1ccccc1", "Potency": "inconclusive [activator, single point]"}, {"compound": "CC(=O)COc1cc2c(-c3cc4ccccc4o3)cc(=O)oc2cc1C", "Potency": "inconclusive [activator, single point]"}, {"compound": "Cn1c(=O)c(C(=O)c2ccccc2)c(O)c2ccccc21", "Potency": "inconclusive [activator, single point]"}, {"compound": "CCOC(=O)CSc1nc2ccccc2c(=O)n1CCC(=O)NCCc1ccc(OC)c(OC)c1", "Potency": "inconclusive [activator, partial curve, poor fit]"}, {"compound": "O=C(NNC1=C(C(=O)C(F)(F)F)CCC1)c1cccc(O)c1", "Potency": "inconclusive [activator, single point]"}, {"compound": "O=c1c2c3nc4ccccc4nc3n(-c3ccc4c(c3)OCCO4)c2ncn1C1CCCC1", "Potency": "active: 7.08 µM"}, {"compound": "O=C(C(Cc1ccccc1)n1cccc1)N1CCN(c2cccc(Cl)c2)CC1", "note": "(stereo not drawn)", "activity, positive = re-replication": "inactive: -1.08%"}, {"compound": "O=C(Nc1ccc(N2CCCC2)cc1)c1cccc(-c2cc3ccccc3oc2=O)c1", "Potency": "inconclusive [activator, partial curve]"}, {"compound": "O=C(COc1ccc(Cl)cc1Cl)NCC1(N2CCOCC2)CCCCC1", "Potency": "inconclusive [activator, single point]"}, {"compound": "CC(C)c1ccc(/C=C2\\SC(=S)N(CCC(=O)NCCCn3ccnc3)C2=O)cc1", "Potency": "inconclusive [activator, full curve, poor fit]"}, {"compound": "CCCC(C(=O)NC1CCCC1)N(C(=O)c1snc(C(N)=O)c1N)c1ccc(F)cc1", "note": "(stereo not drawn)", "Potency": "inconclusive [activator, partial curve, poor fit]"}, {"compound": "O=C(CN1CCCC1)NC(c1ccccc1)c1ccccc1", "activity, positive = re-replication": "inactive: -2.12%"}, {"compound": "Cc1ccc(CNC(=O)C2CCN(c3nc(C)cc(C)n3)CC2)cc1", "activity, positive = re-replication": "inactive: -6.12%"}, {"compound": "O=C(Cn1c2ccccc2c(=O)c2cc([N+](=O)[O-])ccc21)Nc1ccccc1Cl", "Potency": "inconclusive [activator, single point]"}, {"compound": "O=C1[C@H](Cc2ccccc2)NCC=CC[C@H](c2ccc(Cl)cc2)N1Cc1ccccc1", "activity, positive = re-replication": "inactive: -41.3%"}, {"compound": "CC(=O)c1ccc(NC(=O)C(C)NCc2ccccc2Cl)cc1", "note": "(stereo not drawn)", "Potency": "inconclusive [activator, single point]"}, {"compound": "COc1ccc(/C=N/Nc2ccccc2C(=O)O)cc1", "Potency": "inconclusive [activator, single point]"}, {"compound": "COc1ccc(-c2sc3cc4c(cc3c2-c2ccc(OCCN3CCCCC3)cc2)OCO4)cc1", "Potency": "inconclusive [activator, single point]"}, {"compound": "CN(C)C1=NCCN1CCCC1CCCCC1", "Potency": "inconclusive [activator, full curve, poor fit]"}, {"compound": "C#Cc1ccc([C@@H]2C=C(C(=O)N3CCN(Cc4ccccc4)CC3)O[C@H](OCC)[C@H]2CCCO)cc1", "Potency": "inconclusive [activator, single point]"}, {"compound": "CCCCOC(=O)c1ccc(NC(=O)CN2C(=O)NC3(CCCCCC3)C2=O)cc1", "Potency": "inconclusive [activator, single point]"}, {"compound": "NCCC(=O)NCCc1cnc[nH]1", "Potency": "inconclusive [activator, full curve, poor fit]"}, {"compound": "Cc1cc(Cl)ccc1NC(=S)N1CCN(Cc2ccccc2)CC1", "activity, positive = re-replication": "inactive: 11.8%"}, {"compound": "COc1ccc(Nc2c(C)cccc2C)cc1", "Potency": "inconclusive [activator, partial curve, poor fit]"}, {"compound": "CCOC(=O)c1cc([N+](=O)[O-])cc([N+](=O)[O-])c1Sc1ncnc2nc[nH]c12", "Potency": "inconclusive [activator, single point]"}, {"compound": "O=[N+]([O-])c1cccc(-c2cc3ccccc3[nH]2)c1", "activity, positive = re-replication": "inactive: 3.8%"}, {"compound": "COc1ccc(CCNC(=O)c2ccc(-c3ccc([N+](=O)[O-])cc3)o2)cc1OC", "Potency": "inconclusive [activator, single point]"}, {"compound": "COCCn1c(C)cc(C(=O)CSc2nc3ccccc3c(=O)n2C(C)COC)c1C", "note": "(stereo not drawn)", "Potency": "inconclusive [activator, full curve, poor fit]"}, {"compound": "C=CCc1cccc(CNc2ccc(Br)cc2)c1O", "Potency": "inconclusive [activator, single point]"}, {"compound": "COc1ccc(Cn2c(-c3ccco3)nc3oc4ccccc4c(=O)c3c2=O)cc1", "activity, positive = re-replication": "inactive: -0.869%"}, {"compound": "O=C(N/C(=C\\c1ccc(O)cc1)C(=O)N1CCCCC1)c1ccccc1", "Potency": "inconclusive [activator, partial curve, poor fit]"}, {"compound": "O=[N+]([O-])c1ccc(NCCOc2ccccc2Cl)nc1", "Potency": "inconclusive [activator, single point]"}, {"compound": "CCc1sc(C(=O)Nc2nc(-c3ccccn3)cs2)cc1C", "Potency": "inconclusive [activator, single point]"}, {"compound": "Cc1ccc(O)c(NS(=O)(=O)c2cccc3nsnc23)c1", "Potency": "inconclusive [activator, single point]"}, {"compound": "Cc1ccc(Nc2nc3ccccc3s2)c(C)c1", "Potency": "inconclusive [activator, single point]"}, {"compound": "COc1cccc(NC(=S)N/N=C2\\CC3CCC2(C)C3(C)C)c1", "note": "(stereo not drawn)", "Potency": "inconclusive [activator, single point]"}, {"compound": "CC1=C(C(=O)Nc2ccc(Br)cc2)C(c2ccco2)NC(=O)N1", "note": "(stereo not drawn)", "Potency": "inconclusive [activator, single point]"}, {"compound": "CCOC(=O)CCc1cnccc1-c1cccc(OC)c1O", "Potency": "inconclusive [activator, full curve, poor fit]"}, {"compound": "N#CCC(=O)Nc1ccc(C(=O)OCC(=O)Nc2sc3c(c2C#N)CCCC3)cc1", "activity, positive = re-replication": "inactive: 2.07%"}, {"compound": "CC(O)CNc1nc2sc3c(c2c(=O)n1CCc1ccccc1)CCCCC3", "note": "(stereo not drawn)", "Potency": "inconclusive [activator, single point]"}, {"compound": "CN(c1ccccc1)S(=O)(=O)c1cccc(NC(=O)CSc2nccc(=O)[nH]2)c1", "activity, positive = re-replication": "inactive: -2.2%"}, {"compound": "CCOC(=O)c1cnc(-n2cc(C)cn2)nc1Nc1ccccc1OC", "activity, positive = re-replication": "inactive: 18.1%"}, {"compound": "CCC(C)(C)NC(=O)CN(CCc1cccc(C)c1)C(=O)c1csnn1", "activity, positive = re-replication": "inactive: -0.128%"}, {"compound": "CS(=O)(=O)c1ccc2nc(N)sc2c1", "activity, positive = re-replication": "inactive: -0.196%"}, {"compound": "COc1ccc(/C=C/C(=O)Nc2cc(C(F)(F)F)ccc2Cl)cc1", "Potency": "inconclusive [activator, single point]"}, {"compound": "Clc1cccc(Cl)c1Cn1c(-c2cccnc2Cl)nc2ccccc21", "Potency": "inconclusive [activator, single point]"}, {"compound": "CN(C)c1ccc(/C=N/NC(=O)c2nnn(-c3nonc3N)c2CN2CCCCCC2)cc1", "Potency": "inconclusive [activator, single point]"}, {"compound": "COc1ccc(C2=Nn3c(nnc3-c3cccnc3)SC2)cc1OC", "activity, positive = re-replication": "inactive: 11.4%"}, {"compound": "Cc1cc(NC(=O)c2ccc(F)cc2F)n(-c2nc3ccccc3[nH]2)n1", "Potency": "inconclusive [activator, full curve, poor fit]"}, {"compound": "CCc1nc2ccc(C(=O)NCCc3ccccc3OC)cc2nc1CC", "activity, positive = re-replication": "inactive: 5.17%"}, {"compound": "CC(OC(=O)CCN=C1NS(=O)(=O)c2ccccc21)C(=O)Nc1ccc(F)cc1", "note": "(stereo not drawn)", "Potency": "inconclusive [activator, partial curve, poor fit]"}, {"compound": "COCCCNc1nc2nonc2nc1N1CCN(C2CCCC2)CC1", "Potency": "inconclusive [activator, single point]"}, {"compound": "Cc1cc(C)cc(C(=O)NCC(=O)OCC(=O)NC2CCCc3ccccc32)c1", "note": "(stereo not drawn)", "activity, positive = re-replication": "inactive: -3.56%"}, {"compound": "CC(=O)c1ccc(NC(=O)CSc2nc3ccccc3c(=O)n2CCCN2CCOCC2)cc1", "Potency": "inconclusive [activator, partial curve, poor fit]"}, {"compound": "C=CCn1c(SCC(=O)Nc2ccc(F)cc2F)nnc1-c1cnccn1", "Potency": "inconclusive [activator, single point]"}, {"compound": "Clc1ccc(C2=NN(c3ccccc3)C(c3ccco3)C2)cc1", "note": "(stereo not drawn)", "Potency": "active: 0.731 µM"}, {"compound": "Cc1cccn2c(=O)c3cc(C(=O)NCC4CCCO4)c(=N)n(CCN4CCOCC4)c3nc12", "note": "(stereo not drawn)", "Potency": "active: 14.6 µM"}, {"compound": "O=C(N/N=C/c1cccc2ccccc12)c1ccncc1", "activity, positive = re-replication": "inactive: -6.09%"}, {"compound": "CN(CCOc1ccccc1)C(=O)CCc1c[nH]c2ccccc12", "Potency": "inconclusive [activator, partial curve, poor fit]"}, {"compound": "COc1ccc(CNC(=O)CSc2nnnn2Cc2ccccc2)cc1", "Potency": "inconclusive [activator, single point]"}, {"compound": "COc1ccc(-n2nc(C(=O)NCC(=O)NCc3ccc(F)cc3)c3ccccc3c2=O)cc1OC", "Potency": "inconclusive [activator, single point]"}, {"compound": "Cc1ccc(NC(=O)CC2SC3=NCCCN3C2=O)c(C)c1", "note": "(stereo not drawn)", "Potency": "inconclusive [activator, single point]"}, {"compound": "Cc1ccc(S(=O)(=O)N2CCCCC2)cc1NC(=O)Cc1c[nH]c2ccccc12", "activity, positive = re-replication": "inactive: -3.22%"}]}]}
